Measurements published in PubChem BioAssay AID652104 (National Center for Advancing Translational Sciences (NCATS), 2013).
The whole screen tested about 410,000 compounds, of which about 7,200 (1.8%) were called active. Inconclusive results, whose numbers are uncertain, are shown with a selection of clear calls. The call rests on the fitted dose curve; in most records, active means well fitted activation curve with a large enough effect; inconclusive means small, poorly fitted or top-dose-only effect, or another doubt; inactive means no such curve, though single readings can be large or run the other way. Potencies of inconclusive entries are left out as doubtful fits.

Test: qHTS of TDP-43 Inhibitors; further: nearly all actives have a fitted effect of over 50% in size; on growth rescue (activation): % of control where 0% means no effect
Details: TDP-43 expressing yeast growth rescue, BacTiter-Glo, 24 h; growth rescue (activation): at 46.1 µM (top of the series) unless noted
Summary of the method: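 In this qHTS, compounds that restore growth of yeast expressing TDP-43 appear as activators. Cells (OD600=0.02, galactose medium, raffinose-pregrown) are incubated with compound 24 hr at 30 deg C and growth is quantified by BacTiter-Glo.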
Potency means the concentration at half of the fitted maximal effect; tags describe the fitted curve by direction and shape.

Structure (SMILES)	Potency	growth rescue (activation)
CC(CN(C)C)CN1c2ccccc2CCc2ccccc21 (stereo not drawn)	inconclusive [activator, partial curve]	
COc1ccc(-c2cn3nc(N4CCC(C(=O)NCc5ccccc5F)CC4)sc3n2)cc1	inactive	
COCCn1c(SCc2nc3ccccc3s2)nc2ccccc21	inconclusive [activator, single point]	
Cc1ccc(NS(=O)(=O)c2ccc(Cl)s2)nc1	inactive	
Cc1onc(-c2ccccc2)c1C(=O)OCC(=O)Nc1cccc(Cl)c1	inconclusive [activator, full curve]	
COc1ccccc1C(=O)N(C)c1nnc(-c2ccccc2)s1	inconclusive [activator, single point]	
CCC12CN3CCN(CC(C3)/C1=N\NC(=O)c1ccc(C(C)(C)C)cc1)C2	inconclusive [activator, full curve]	
Brc1cc(Br)c2ncnc(N3CCCCC3)c2c1	inactive	
COc1ccc(C(=O)n2cnc3ccccc32)cc1	inconclusive [activator, single point]	
COc1ccc([C@H]2C[C@@H](n3cc(C4CC4)nn3)[C@H](O)CN2CC2CCCCC2)cc1	inconclusive [activator, partial curve]	
CC(C)(C)c1ccc(-c2n[nH]c(=S)n2-c2ccccc2)cc1	inactive	
O=c1c2ccccc2nnn1COc1cccc2ccccc12	active: 12.6 µM	
Cc1ccccc1/C=C1\Oc2ccccc2C1=O	inconclusive [activator, partial curve]	
c1cnc(SCCOc2ccc3c(c2)CCC3)nc1	inconclusive [activator, partial curve]	
COC(=O)c1cc(S(=O)(=O)NCc2ccc(F)cc2)cn1C	inconclusive [activator, partial curve]	
Cc1ccc(C(C)C)c(OCC(=O)Nc2cccc(NC(=O)c3ccco3)c2)c1	active: 20 µM	
Cc1cccc(S(=O)(=O)Nc2nc3ccccc3nc2Nc2cccc(C(=O)O)c2)c1	inactive	
C=C(C)Cn1c(N2CC(C)CC(C)C2)nc2c1c(=O)[nH]c(=O)n2C (stereo not drawn)	inactive	
COc1cccc(C2=CC(c3ccc(OC)c(OC)c3OC)n3ncnc3N2)c1 (stereo not drawn)	inconclusive [activator, full curve]	
Cc1nn(-c2ccccc2)c(Cl)c1CN(C(=O)CCl)c1ccc(Cl)cc1	active: 20 µM	
CCN(C(=O)Cc1nc(-c2ccc(OC)cc2)no1)c1cccc(Cl)c1	inconclusive [activator, single point]	
Cc1ccc(NC(=S)NCc2ccccc2)cc1C	active: 12.6 µM	
Cc1ccc(Cn2ccc(NC(=O)c3cc(CC(C)C)on3)n2)cc1	inconclusive [activator, partial curve]	
COc1ccc(OCCC(=O)OCC(=O)Nc2cccc(S(=O)(=O)N3CCCCC3)c2)cc1	inconclusive [activator, partial curve]	
Cc1oc2ccc(O)c(CN(C)Cc3ccccc3)c2c1C(=O)Nc1cccc(C(F)(F)F)c1	inactive	

Structure (SMILES)	Potency	growth rescue (activation)
CCOc1ccc(C(=O)NCC(c2cccs2)N(C)C)cc1OCC (stereo not drawn)	inconclusive [activator, partial curve, poor fit]	
COc1cc(NC(=O)Cn2c(=O)oc3cc(S(=O)(=O)N4CCCCCC4)ccc32)cc(OC)c1	inactive	
CC12CCC(C)(c3nc4ccccc4nc31)C2(C)C	inactive	
CCCOc1ccc(C(=O)c2nc3c(n2O)CCCC3)cc1	active: 12.6 µM	
CCCc1cc(-c2nc(-c3ccc(Cl)cc3)cs2)ccn1	inconclusive [activator, single point]	
O=C(CSc1cccs1)Nc1cccc2ccccc12	inconclusive [activator, partial curve]	
COC(=O)c1cc(=O)nc2sc3cc(OC)ccc3n12	inactive	
CCOC(=O)CSc1nc(N2CCOCC2)c2c(c1C#N)CC(C)(C)OC2	inconclusive [activator, partial curve]	
COC(=O)c1cc(-c2ccc(Br)cc2)on1	inconclusive [activator, partial curve]	
CCOC(=O)C1=CN(Cc2cccc(Br)c2)S(=O)(=O)NC1C (stereo not drawn)	inconclusive [activator, partial curve, poor fit]	
CCc1ccc(CNC(=O)CCSCc2ccccc2F)cc1	inconclusive [activator, partial curve]	
CCOC(=O)Cn1c2ccc(C)cc2c2nc(C)sc21	active: 15.8 µM	
COC(=O)c1c(-c2ccc(Cl)cc2)noc1N1CCN(c2ccc(OC)cc2)CC1		inactive: 17.8% [at 9.22 µM]
Cc1cc(=O)n(CC=C(Cl)Cl)c2ccccc12	active: 12.6 µM	
CSc1ccc(CNCCCSc2ncccn2)cc1	inactive	
CCOCCCN(C(=O)Cn1nnc(-c2ccc(OC)c(OC)c2)n1)C(C(=O)NCC1CCCO1)c1ccc(F)cc1 (stereo not drawn)	inactive	
COc1ccc(CC(=O)N2CCc3ccccc3C2)cc1	inconclusive [activator, partial curve]	
COc1ccccc1NC(=S)NCCc1ccccc1	inconclusive [activator, partial curve]	
CC(Nc1cc(N2CCNCC2)ccc1[N+](=O)[O-])c1ccccc1 (stereo not drawn)	inactive	
COc1ccc(OC)c(NC(=O)CSc2ccnc(=O)[nH]2)c1	inconclusive [activator, partial curve, poor fit]	
COCCc1nc2ccc(C(=O)N(C)Cc3cccc(-n4cccn4)c3)cc2o1	inconclusive [activator, single point]	
CCOc1cc(N2CCOCC2)c(OCC)cc1NC(=O)c1ccc(C)cc1	inconclusive [activator, partial curve, poor fit]	
O=C(c1cc(-c2ccccc2)on1)N1CCN(c2ccccc2)CC1	inconclusive [activator, full curve, poor fit]	
C[C@@H]1CN([C@H](C)CO)C(=O)CCCn2cc(nn2)CO[C@H]1CN(C)S(=O)(=O)c1ccc(-n2cccn2)cc1	inactive	
COc1ccccc1/C=C1\SC(N2CCC(C)CC2)=NC1=O	active: 12.6 µM	

Structure (SMILES)	Potency	growth rescue (activation)
COc1ccc(OCC(=O)Nc2c(Cl)ccc3nsnc23)cc1	inconclusive [activator, full curve]	
COC(=O)c1c(-c2cccc(C)c2)csc1NC(=O)C1CCCO1 (stereo not drawn)	inconclusive [activator, single point]	
Cc1cc(C)nc(N/C(=N\S(=O)(=O)Cc2ccccc2)Nc2ccccc2Br)n1	inactive	
O=C(Nc1ccc(Br)cc1)C1CCN(c2cnccn2)CC1	inconclusive [activator, partial curve]	
O=C(Nc1cccc(-c2csc(-c3ccccc3)n2)c1)c1cccs1	inconclusive [activator, partial curve]	
Cn1c(SCC(=O)N2c3ccccc3Sc3ccccc32)nnc1-c1ccco1	inconclusive [activator, single point]	
CCOc1ccc(Cl)cc1-c1cc(C(=O)Nc2ccc(F)cc2)[nH]n1	inconclusive [activator, partial curve]	
COCCNC(=O)c1ccc(N(C)S(=O)(=O)c2ccc(OC)c(OC)c2)cc1	inconclusive [activator, full curve, poor fit]	
CN1CCN(C(=O)c2cc(Cl)cc(Cl)c2NC(=O)c2ccco2)CC1	inconclusive [activator, single point]	
Cc1ccccc1OCCOC(=O)c1nc2nccc(C)n2n1	inconclusive [activator, full curve]	
CCc1nn2c(=O)cc(COC(=O)CNC(=O)c3ccccc3)nc2s1	inactive	
C#CCSc1nc(C)cc(C(=O)OCC)c1C#N	active: 14.1 µM	
COc1ccc(CC(=O)Nc2cccc3c2CCCC3)cc1	inconclusive [activator, full curve]	
COc1cccc(Nc2nc(-c3cccnc3)cs2)c1	inconclusive [activator, partial curve]	
O=C(Nc1cccc(C(F)(F)F)c1)c1scc2c1OCCO2	inconclusive [activator, partial curve]	
Cc1ccc(C(=O)COC(=O)c2ccc3c(c2)C(=O)N(c2cccc4ncccc24)C3=O)cc1C	inconclusive [activator, single point]	
CCCCn1c(O)c(N=NC(=O)c2ccncc2)c2cc(Br)ccc21	inconclusive [activator, single point]	
COc1ccc(C(=O)NC(=S)N2CCCc3ccccc32)cc1OC	inconclusive [activator, single point]	
O=C1OC(c2ccccc2)c2ccccc21 (stereo not drawn)	inactive	
CN1CCN(C(=O)C2=C[C@@H](c3coc4ccccc4c3=O)C[C@@H](OCc3ccc(CO)cc3)O2)CC1	inconclusive [activator, full curve, poor fit]	
NC(=O)c1cc(S(=O)(=O)N2CCN(c3ccc(F)cc3)CC2)cs1	inactive	
COc1ccccc1-c1ccc(SCc2cccc(F)c2)nn1	inconclusive [activator, partial curve]	
CCC(CC)c1nn2c(=O)cc(COc3ccc(NC(=O)c4ccccc4Cl)cc3)nc2s1	inactive	
